# Data: patent US8722849B2, “Polypeptides” (Novo Nordisk A/S, priority 2011, dated 2014)
# The name of at least one read-out is uncertain. Starred links: 1 amine or outer side, 2 acyl side, 3 side chain; linkers in the order of their positions; H or OH if unused. Positions of bridges follow the written chain, without caps; N, C: chain ends. Residues, ends and D or L forms follow the SMILES beside them. Groups on a side chain read outwards from the residue. *: point of attachment. C20 diacid = O=C(O)CCCCCCCCCCCCCCCCCCC(=O)*; C18 diacid = O=C(O)CCCCCCCCCCCCCCCCC(=O)*; γGlu = O=C(O)[C@H](CCC(=O)[*:2])N[*:1]; AEEA = NCCOCCOCC(=O)O
# Assay: Assay (III) ThT fibrillation assay for physical stability
# Assay type: physicochemical
# Settings: ThT fibrillation assay
# Procedure, shortened: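 Freshly prepared formulations, pH-adjusted, with 1 μM ThT; four or eight replicates incubated at 37 °C under 960 rpm orbital shaking. Fluorescence (ex 444/em 485 nm) read every 20 min; […]. Peptide concentration measured by RP-HPLC before and after the run.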
Structure (SMILES),ThT pH 4.0 recovery,ThT pH 4.0 recovery (%)
"CC[C@H](C)[C@H](NC(=O)[C@H](CCCCNC(=O)COCCOCCNC(=O)COCCOCCNC(=O)CC[C@H](NC(=O)CCCCCCCCCCCCCCCCC(=O)O)C(=O)O)NC(=O)CNC(=O)[C@H](Cc1ccccc1)NC(=O)[C@H](CC(N)=O)NC(=O)[C@H](CO)NC(=O)[C@H](CO)NC(=O)[C@H](CO)NC(=O)[C@H](Cc1c[nH]cn1)NC(=O)[C@@H](NC(=O)[C@H](CC(C)C)NC(=O)[C@H](Cc1ccccc1)NC(=O)[C@H](CCC(=O)O)NC(=O)[C@H](C)NC(=O)[C@H](CC(C)C)NC(=O)[C@H](CCCNC(=N)N)NC(=O)[C@H](CCC(N)=O)NC(=O)[C@@H](NC(=O)[C@H](C)NC(=O)[C@@H]1CSSC[C@H](NC(=O)[C@@H](N)CCCCN)C(=O)N[C@@H](CC(N)=O)C(=O)N[C@@H]([C@@H](C)O)C(=O)N[C@@H](C)C(=O)N[C@@H]([C@@H](C)O)C(=O)N1)[C@@H](C)O)C(C)C)C(=O)N[C@@H](CC(C)C)C(=O)N1CCC[C@H]1C(=O)N1CCC[C@H]1C(=O)N[C@H](C(=O)N[C@@H](CC(N)=O)C(=O)N[C@H](C(=O)NCC(=O)N[C@@H](CO)C(=O)N[C@@H](CC(N)=O)C(=O)N[C@H](C(=O)N[C@@H](Cc1ccc(O)cc1)C(N)=O)[C@@H](C)O)C(C)C)[C@@H](C)O [Example 72, N-epsilon25-[2-(2-{2-[2-(2-{2-[(S)-4-Carboxy-4-(17-carboxyheptadecanoylamino)butyrylamino]ethoxy}ethoxy)acetylamino]ethoxy}ethoxy)acetyl]-[Glu14,Ser21,Lys25]-pramlintide] (H-KCNTATCATQRLAEFLVHSSSNFGK([AEEA-AEEA-γGlu-C18 diacid])ILPPTNVGSNTY-NH2; disulfide 2-7 (inferred); N-terminus assumed)",–,57%
"CC[C@H](C)[C@H](NC(=O)[C@@H]1CCCN1C(=O)CNC(=O)[C@H](Cc1ccccc1)NC(=O)[C@H](CC(N)=O)NC(=O)[C@H](CC(N)=O)NC(=O)[C@H](CO)NC(=O)[C@H](CO)NC(=O)[C@H](Cc1c[nH]cn1)NC(=O)[C@H](Cc1c[nH]cn1)NC(=O)[C@H](CC(C)C)NC(=O)[C@H](Cc1ccccc1)NC(=O)[C@H](CCC(=O)O)NC(=O)[C@H](C)NC(=O)[C@H](CC(C)C)NC(=O)[C@H](CCCNC(=N)N)NC(=O)[C@H](CCC(N)=O)NC(=O)[C@@H](NC(=O)[C@H](C)NC(=O)[C@@H]1CSSC[C@H](NC(=O)CC[C@H](NC(=O)CCCCCCCCCCCCCCCCCCC(=O)O)C(=O)O)C(=O)N[C@@H](CC(N)=O)C(=O)N[C@@H]([C@@H](C)O)C(=O)N[C@@H](C)C(=O)N[C@@H]([C@@H](C)O)C(=O)N1)[C@@H](C)O)C(=O)N[C@@H](CC(C)C)C(=O)N1CCC[C@H]1C(=O)N1CCC[C@H]1C(=O)N[C@H](C(=O)N[C@@H](CC(N)=O)C(=O)N[C@H](C(=O)NCC(=O)N[C@@H](CO)C(=O)N[C@@H](CC(N)=O)C(=O)N[C@H](C(=O)N[C@@H](Cc1ccc(O)cc1)C(N)=O)[C@@H](C)O)C(C)C)[C@@H](C)O [Example 28, N-alpha-[(S)-4-Carboxy-4-(19-carboxynonadecanoylamino)butyryl]-[des1,Glu14,His17]-pramlintide] ({C20 diacid-γGlu}-CNTATCATQRLAEFLHHSSNNFGPILPPTNVGSNTY-NH2; disulfide 1-6 (inferred))",–,0%
"CC[C@H](C)[C@H](NC(=O)[C@@H]1CCCN1C(=O)CNC(=O)[C@H](Cc1ccccc1)NC(=O)[C@H](CC(N)=O)NC(=O)[C@H](CC(N)=O)NC(=O)[C@H](CO)NC(=O)[C@H](CO)NC(=O)[C@H](Cc1c[nH]cn1)NC(=O)[C@@H](NC(=O)[C@H](CC(C)C)NC(=O)[C@H](Cc1ccccc1)NC(=O)[C@H](CC(N)=O)NC(=O)[C@H](C)NC(=O)[C@H](CC(C)C)NC(=O)[C@H](CCCNC(=N)N)NC(=O)[C@H](CCC(N)=O)NC(=O)[C@@H](NC(=O)[C@H](C)NC(=O)[C@@H]1CSSC[C@H](NC(=O)[C@H](CCCNC(=N)N)NC(=O)CNC(=O)CC[C@H](NC(=O)CCCCCCCCCCCCCCCCCCC(=O)O)C(=O)O)C(=O)N[C@@H](CC(N)=O)C(=O)N[C@@H]([C@@H](C)O)C(=O)N[C@@H](C)C(=O)N[C@@H]([C@@H](C)O)C(=O)N1)[C@@H](C)O)C(C)C)C(=O)N[C@@H](CC(C)C)C(=O)N1CCC[C@H]1C(=O)N1CCC[C@H]1C(=O)N[C@H](C(=O)N[C@@H](CC(N)=O)C(=O)N[C@H](C(=O)NCC(=O)N[C@@H](CO)C(=O)N[C@@H](Cc1c[nH]cn1)C(=O)N[C@H](C(=O)N[C@@H](Cc1ccc(O)cc1)C(N)=O)[C@@H](C)O)C(C)C)[C@@H](C)O [Example 99, N-alpha-[(S)-4-Carboxy-4-(19-carboxynonadecanoylamino)butyryl]-Gly-[Arg1,His35]-pramlintide] ({C20 diacid-γGlu}-GRCNTATCATQRLANFLVHSSNNFGPILPPTNVGSHTY-NH2; disulfide 3-8 (inferred); C-terminus assumed)",–,0%
"CC[C@H](C)[C@H](NC(=O)[C@@H]1CCCN1C(=O)CNC(=O)[C@H](Cc1ccccc1)NC(=O)[C@H](CC(N)=O)NC(=O)[C@H](CC(N)=O)NC(=O)[C@H](CO)NC(=O)[C@H](CO)NC(=O)[C@H](Cc1c[nH]cn1)NC(=O)[C@H](Cc1c[nH]cn1)NC(=O)[C@H](CC(C)C)NC(=O)[C@H](Cc1ccccc1)NC(=O)[C@H](CCC(=O)O)NC(=O)[C@H](C)NC(=O)[C@H](CC(C)C)NC(=O)[C@H](CCCNC(=N)N)NC(=O)[C@H](CCC(N)=O)NC(=O)[C@@H](NC(=O)[C@H](C)NC(=O)[C@@H]1CSSC[C@H](NC(=O)[C@H](Cc2c[nH]cn2)NC(=O)CC[C@H](NC(=O)CCCCCCCCCCCCCCCCC(=O)O)C(=O)O)C(=O)N[C@@H](CC(N)=O)C(=O)N[C@@H]([C@@H](C)O)C(=O)N[C@@H](C)C(=O)N[C@@H]([C@@H](C)O)C(=O)N1)[C@@H](C)O)C(=O)N[C@@H](CC(C)C)C(=O)N1CCC[C@H]1C(=O)N1CCC[C@H]1C(=O)N[C@H](C(=O)N[C@@H](CC(N)=O)C(=O)N[C@H](C(=O)NCC(=O)N[C@@H](CO)C(=O)N[C@@H](CC(N)=O)C(=O)N[C@H](C(=O)N[C@@H](Cc1ccc(O)cc1)C(N)=O)[C@@H](C)O)C(C)C)[C@@H](C)O [Example 48, N-alpha-[(S)-4-Carboxy-4-(17-carboxyheptadecanoylamino)butyryl]-[His1,Glu14,His17]-pramlintide] ({C18 diacid-γGlu}-HCNTATCATQRLAEFLHHSSNNFGPILPPTNVGSNTY-NH2; disulfide 2-7 (inferred))",–,8%

# Results, then the compound that gave them:
ThT pH 4.0 recovery,ThT pH 4.0 recovery (%),Structure (SMILES)
92%,92%,"CC[C@H](C)[C@H](NC(=O)[C@@H]1CCCN1C(=O)CNC(=O)[C@H](Cc1ccccc1)NC(=O)[C@H](CC(N)=O)NC(=O)[C@H](CC(N)=O)NC(=O)[C@H](CO)NC(=O)[C@H](CO)NC(=O)[C@H](Cc1c[nH]cn1)NC(=O)[C@H](Cc1c[nH]cn1)NC(=O)[C@H](CC(C)C)NC(=O)[C@H](Cc1ccccc1)NC(=O)[C@H](CCC(=O)O)NC(=O)[C@H](C)NC(=O)[C@H](CC(C)C)NC(=O)[C@H](CCCNC(=N)N)NC(=O)[C@H](CCC(N)=O)NC(=O)[C@@H](NC(=O)[C@H](C)NC(=O)[C@@H]1CSSC[C@H](NC(=O)[C@H](CCCCN)NC(=O)CC[C@H](NC(=O)CCCCCCCCCCCCCCCCCCC(=O)O)C(=O)O)C(=O)N[C@@H](CC(N)=O)C(=O)N[C@@H]([C@@H](C)O)C(=O)N[C@@H](C)C(=O)N[C@@H]([C@@H](C)O)C(=O)N1)[C@@H](C)O)C(=O)N[C@@H](CC(C)C)C(=O)N1CCC[C@H]1C(=O)N1CCC[C@H]1C(=O)N[C@H](C(=O)N[C@@H](CC(N)=O)C(=O)N[C@@H](Cc1c[nH]cn1)C(=O)NCC(=O)N[C@@H](CO)C(=O)N[C@@H](CC(N)=O)C(=O)N[C@H](C(=O)N[C@@H](Cc1ccc(O)cc1)C(N)=O)[C@@H](C)O)[C@@H](C)O [Example 116, N-alpha-[(S)-4-Carboxy-4-(19-carboxynonadecanoylamino)butyryl]-[Glu14,His17,His32]-pramlintide] ({C20 diacid-γGlu}-KCNTATCATQRLAEFLHHSSNNFGPILPPTNHGSNTY-NH2; disulfide 2-7 (inferred); C-terminus assumed)"
–,68%,"CC(C)C[C@H](NC(=O)[C@H](CCCNC(=N)N)NC(=O)[C@H](CCC(N)=O)NC(=O)[C@@H](NC(=O)[C@H](C)NC(=O)[C@@H]1CSSC[C@H](NC(=O)[C@@H](N)CCCCNC(=O)CC[C@H](NC(=O)CCCCCCCCCCCCCCCCCCC(=O)O)C(=O)O)C(=O)N[C@@H](CC(N)=O)C(=O)N[C@@H]([C@@H](C)O)C(=O)N[C@@H](C)C(=O)N[C@@H]([C@@H](C)O)C(=O)N1)[C@@H](C)O)C(=O)N[C@@H](C)C(=O)N[C@@H](CCC(=O)O)C(=O)N[C@@H](Cc1ccccc1)C(=O)N[C@@H](CC(C)C)C(=O)N[C@@H](Cc1c[nH]cn1)C(=O)N[C@@H](Cc1c[nH]cn1)C(=O)N[C@@H](CO)C(=O)N[C@@H](CO)C(=O)N[C@@H](CCC(N)=O)C(=O)N[C@@H](CC(N)=O)C(=O)N[C@@H](Cc1ccccc1)C(=O)NCC(=O)N[C@@H](C)C(=O)N1CCC[C@H]1C(=O)N[C@@H](CC(C)C)C(=O)N[C@@H](CO)C(=O)N[C@@H](CO)C(=O)N[C@H](C(=O)N[C@@H](CC(N)=O)C(=O)N[C@H](C(=O)NCC(=O)N[C@@H](CO)C(=O)N[C@@H](CC(N)=O)C(=O)N[C@H](C(=O)N1CCC[C@H]1C(N)=O)[C@@H](C)O)C(C)C)[C@@H](C)O [Example 151, N-epsilon1-[(S)-4-Carboxy-4-(19-carboxynonadecanoylamino)butyryl]-[Glu14,His17,Gln21,Ala25,Pro26,Ser28,Ser29,Pro37]-pramlintide] (H-K([γGlu-C20 diacid])CNTATCATQRLAEFLHHSSQNFGAPLSSTNVGSNTP-NH2; disulfide 2-7 (inferred))"
